Experimental data reported in the BET-seq Pho4 binding data (Le et al. 2018).
The list shows a part of the results. The energies were worked out here from pooled read counts, against the library average; single values are noisy.

Molecular target: T1, Pho4 (S. cerevisiae) (UniProt P07270)
T1 sequence: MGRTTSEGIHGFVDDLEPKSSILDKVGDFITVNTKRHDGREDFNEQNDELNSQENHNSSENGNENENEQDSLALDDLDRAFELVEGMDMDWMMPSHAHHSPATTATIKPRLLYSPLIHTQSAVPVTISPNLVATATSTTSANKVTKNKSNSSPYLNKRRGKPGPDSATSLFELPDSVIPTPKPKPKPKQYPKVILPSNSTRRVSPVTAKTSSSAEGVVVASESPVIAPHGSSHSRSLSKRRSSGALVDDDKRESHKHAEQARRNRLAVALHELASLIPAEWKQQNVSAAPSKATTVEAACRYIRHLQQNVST
Assay: relative binding free energy (BET-seq); higher = weaker binding
Settings: reference: library average

Sequence	relative binding free energy
TTTCGCACGTGAGGAG	0.07 kcal/mol
GAAGACACGTGGAGGT	-0.06 kcal/mol
TGAGTCACGTGTGTAT	0.06 kcal/mol
TTCCTCACGTGTGGGA	0.27 kcal/mol
TATTACACGTGAGGGC	0.44 kcal/mol
AGATGCACGTGTCGGG	-0.07 kcal/mol
GTTTTCACGTGATTAA	0.26 kcal/mol
AGCGGCACGTGTGTAG	-0.09 kcal/mol
TAAGGCACGTGCGTTT	-0.04 kcal/mol
TTTTGCACGTGGCGGC	-0.05 kcal/mol
TTGGACACGTGCAGTT	0.07 kcal/mol
CGGGGCACGTGGCCTG	-0.18 kcal/mol
TTTATCACGTGATTTT	0.37 kcal/mol
TAGGTCACGTGATCTT	0.22 kcal/mol
AGCGGCACGTGAGTCT	0.31 kcal/mol
TTGTTCACGTGCGGCT	0.32 kcal/mol
TGTGACACGTGAAAGG	0.14 kcal/mol
TGTGGCACGTGTGTAC	-0.16 kcal/mol
TGTATCACGTGAGGAT	0.44 kcal/mol
TCATGCACGTGGTTAG	-0.17 kcal/mol
TTTTCCACGTGAAGTG	0.16 kcal/mol
GTGCTCACGTGCGGAG	0.18 kcal/mol
TGTTTCACGTGCTGGT	0.21 kcal/mol
TAGTTCACGTGTATTC	0.25 kcal/mol
ACAGTCACGTGTCGGT	0.16 kcal/mol
TATGACACGTGGGAGG	-0.22 kcal/mol

Sequence	relative binding free energy
TCGGGCACGTGTAGTC	0.02 kcal/mol
TTGATCACGTGAGCTG	0.23 kcal/mol
ATTAGCACGTGGTCAA	-0.07 kcal/mol
GATTACACGTGGTCGT	0.09 kcal/mol
AGCGTCACGTGAGTGT	0.1 kcal/mol
TAGATCACGTGTTCGG	0.08 kcal/mol
TGATTCACGTGTCTAG	0.31 kcal/mol
TATGGCACGTGAGGTA	0.04 kcal/mol
TTGAGCACGTGGAGCG	-0.05 kcal/mol
TAAGTCACGTGATTTG	0.38 kcal/mol
TAGTACACGTGTGTTC	0.12 kcal/mol
TACGGCACGTGGTGTA	-0.25 kcal/mol
TGGAGCACGTGAGTAT	0.23 kcal/mol
TGAGGCACGTGATTGA	0.04 kcal/mol
TTCTGCACGTGTTCGT	-0.1 kcal/mol
CGTAGCACGTGTTTTT	-0.1 kcal/mol
TAGCGCACGTGCTGTG	-0.08 kcal/mol
AGGTTCACGTGAAGAG	0.23 kcal/mol
GTGAGCACGTGGCTAG	-0.16 kcal/mol
ATTGCCACGTGAATGG	0.1 kcal/mol
GGTTGCACGTGCTATG	-0.08 kcal/mol
TGTATCACGTGGGGCT	-0.05 kcal/mol
TTTTGCACGTGCGATG	0.03 kcal/mol
TGGATCACGTGATCTT	0.25 kcal/mol
TTGAGCACGTGTTAGG	-0.1 kcal/mol
TGAATCACGTGAGGGT	0.35 kcal/mol

Sequence	relative binding free energy
TTGTGCACGTGGATTC	0.08 kcal/mol
CTGAGCACGTGCGGGT	-0.11 kcal/mol
GATATCACGTGATTTG	0.38 kcal/mol
TTAGGCACGTGCGCTA	-0.11 kcal/mol
ACGTACACGTGGGTTG	-0.16 kcal/mol
ACTGTCACGTGTTGGT	0.07 kcal/mol
ATTTCCACGTGGGGGA	-0.21 kcal/mol
TAATTCACGTGAGGGT	0.45 kcal/mol
TTAGGCACGTGTGGTC	0.03 kcal/mol
ATGAGCACGTGATTAT	0 kcal/mol
AGTCACACGTGATGGG	0.05 kcal/mol
ACGTGCACGTGGTGCG	-0.22 kcal/mol
TTCGGCACGTGAGTTT	0.22 kcal/mol
GAACTCACGTGGTGGG	0.17 kcal/mol
TGTTTCACGTGGGTCT	0.05 kcal/mol
ATATGCACGTGTTCGG	0 kcal/mol
TCGTTCACGTGAGGAG	0.29 kcal/mol
TGGATCACGTGTTGTT	0.13 kcal/mol
TATTGCACGTGTTCGA	0 kcal/mol
AAAGTCACGTGTGGTA	0.05 kcal/mol
AAACGCACGTGGGGGT	-0.22 kcal/mol
ATTAGCACGTGGATTG	-0.12 kcal/mol
TGATACACGTGATTAG	0.23 kcal/mol
TATTGCACGTGTTCTA	0 kcal/mol
ATTATCACGTGTAGGT	0.16 kcal/mol
GGGGTCACGTGTAAGG	0.26 kcal/mol

Sequence	relative binding free energy
TTGTTCACGTGGACTG	0.3 kcal/mol
TGTATCACGTGGTGAA	0.11 kcal/mol
TAGCTCACGTGGTTTT	0.09 kcal/mol
TGGATCACGTGATAGC	0.34 kcal/mol
AGATACACGTGTATTG	-0.03 kcal/mol
TCGTCCACGTGGGCTT	0.16 kcal/mol
CGTTTCACGTGGAGTG	0.23 kcal/mol
TGCGGCACGTGATTAT	-0.14 kcal/mol
GGATTCACGTGTTTAT	0.27 kcal/mol
GGTATCACGTGTTATC	0.26 kcal/mol
AGTTTCACGTGACTTG	0.29 kcal/mol
TTGTACACGTGACGGG	0.19 kcal/mol
GTTCTCACGTGTTTTT	0.27 kcal/mol
GGTATCACGTGGATGA	0.05 kcal/mol
GGGTACACGTGTGATT	0.22 kcal/mol
GGGCTCACGTGATAGA	0.51 kcal/mol
TTGTACACGTGCTATT	-0.12 kcal/mol
AATAGCACGTGGTGTG	-0.3 kcal/mol
CTTAGCACGTGTTATT	-0.11 kcal/mol
ACGGTCACGTGTGTCG	0.05 kcal/mol
TAATTCACGTGACATT	0.37 kcal/mol
ATTGACACGTGGGAGG	-0.11 kcal/mol
GTGCTCACGTGGGTGG	0.22 kcal/mol
GGTGTCACGTGGACCG	0.12 kcal/mol
TGGTGCACGTGCGATA	-0.11 kcal/mol
TAGAGCACGTGCAGGG	-0.16 kcal/mol

Sequence	relative binding free energy
TGCGGCACGTGTGGCT	-0.15 kcal/mol
TGGTGCACGTGTTTTT	0.15 kcal/mol
AGACGCACGTGAGAGG	0.15 kcal/mol
GGGTGCACGTGGATGA	-0.01 kcal/mol
TCATACACGTGTTATT	-0.03 kcal/mol
GGTATCACGTGCAGGG	0.2 kcal/mol
TGATTCACGTGCGGTT	0.4 kcal/mol
AGGAACACGTGATTGG	0.17 kcal/mol
GGGAGCACGTGAAATG	0.2 kcal/mol
TGAGTCACGTGTTTGA	0.05 kcal/mol
GGTCTCACGTGGCAGG	0.02 kcal/mol
ACTTGCACGTGAGGGT	0.13 kcal/mol
GGTAACACGTGCGAAG	0.24 kcal/mol
CGTGTCACGTGGAAGT	0.12 kcal/mol
ATTTTCACGTGGGGAC	0.35 kcal/mol
TATAGCACGTGTGGTC	0.08 kcal/mol
ACAATCACGTGGTGTG	-0.03 kcal/mol
ACTGGCACGTGCGTGA	0.03 kcal/mol
TTCGTCACGTGTATAT	0.12 kcal/mol
GTGGGCACGTGGACGT	-0.09 kcal/mol
TTGTCCACGTGGTACT	0.03 kcal/mol
TTTTACACGTGTTCAG	0.21 kcal/mol
GAGATCACGTGCGTTT	0.23 kcal/mol
GCGGACACGTGTGAGT	0.13 kcal/mol
GTGGGCACGTGTACAG	-0.09 kcal/mol
TCGAACACGTGTTGAG	0.13 kcal/mol

Sequence	relative binding free energy
TCCGTCACGTGTTTTT	0.24 kcal/mol
TGTCACACGTGTAATT	0.33 kcal/mol
GGTGGCACGTGGGGCC	-0.21 kcal/mol
ATCAGCACGTGGTCGT	-0.12 kcal/mol
GGCTCCACGTGGTGTG	-0.04 kcal/mol
AAGGTCACGTGTTCAG	0.23 kcal/mol
AAGTGCACGTGTGCGA	-0.08 kcal/mol
GATGTCACGTGTATGT	0.17 kcal/mol
AGGATCACGTGGATGC	0.15 kcal/mol
GCTGTCACGTGTGTCG	0.11 kcal/mol
AGGTACACGTGGATAA	0.32 kcal/mol
TTATACACGTGTTGGT	0.13 kcal/mol
ATAATCACGTGATTTT	0.2 kcal/mol
AGGTTCACGTGGAGAG	0.29 kcal/mol
GCAGGCACGTGGGTGG	-0.15 kcal/mol
GTGGACACGTGAGTGT	0.33 kcal/mol
AAAGGCACGTGGGGAG	-0.23 kcal/mol
TGAATCACGTGCGGAT	0.16 kcal/mol
TGAGTCACGTGGCCGT	0.16 kcal/mol
TCGTTCACGTGGGACG	0.21 kcal/mol
CGTGGCACGTGTGCGT	-0.09 kcal/mol
GTTAACACGTGTCTGT	-0.03 kcal/mol
TCATGCACGTGGGGAT	-0.17 kcal/mol
AATGTCACGTGGAGTT	0.2 kcal/mol
GTTAACACGTGCTGGT	0.04 kcal/mol
TTTTACACGTGCACGT	0.11 kcal/mol

Sequence	relative binding free energy
GGTGGCACGTGAGATT	0.24 kcal/mol
AGTCACACGTGGTAAG	0.19 kcal/mol
GCGGTCACGTGTGGGA	0.25 kcal/mol
TTAGGCACGTGAGGCA	0.09 kcal/mol
AGTGTCACGTGTTGGT	0.07 kcal/mol
TCTATCACGTGGTAGG	0.13 kcal/mol
TTGTGCACGTGTTATA	-0.06 kcal/mol
GCATTCACGTGGGGTA	0.04 kcal/mol
TGGCGCACGTGGGTGG	-0.13 kcal/mol
AAGTTCACGTGATTAA	0.39 kcal/mol
TGTTTCACGTGCTGCT	0.17 kcal/mol
TCGGTCACGTGGTAAT	0.04 kcal/mol
TGAGGCACGTGGCGGG	-0.2 kcal/mol
GGTCGCACGTGTAGTC	0.06 kcal/mol
TTGGTCACGTGGTGTA	0.1 kcal/mol
TGGGGCACGTGCACGG	-0.09 kcal/mol
AAGTTCACGTGGTGGA	0.23 kcal/mol
AAGGGCACGTGTATGA	-0.23 kcal/mol
AGCTGCACGTGCGGTT	0.03 kcal/mol
GTGCACACGTGATATG	0.24 kcal/mol
TGGCTCACGTGAGTGT	0.36 kcal/mol
GGTGACACGTGAATTA	0.4 kcal/mol
TTTAACACGTGTGCGC	0.03 kcal/mol
ATGTACACGTGTTGCT	-0.01 kcal/mol
GATGTCACGTGGGCCT	-0.01 kcal/mol
TTCTGCACGTGGGTTA	-0.11 kcal/mol

Sequence	relative binding free energy
ATGGGCACGTGTTCAT	-0.22 kcal/mol
TACGACACGTGGGGGT	-0.06 kcal/mol
TAGTACACGTGATCGG	0.04 kcal/mol
GTGGCCACGTGGTGTG	-0.02 kcal/mol
TGTAGCACGTGTCGAG	-0.04 kcal/mol
GTGGGCACGTGGGCTA	-0.13 kcal/mol
CGTAGCACGTGGAGAT	0.06 kcal/mol
TGGGTCACGTGCGGTG	-0.03 kcal/mol
TCGACCACGTGGTGGG	-0.04 kcal/mol
GCGCGCACGTGTGTTG	-0.04 kcal/mol
GTGTCCACGTGTGGGT	0.29 kcal/mol
GAGTACACGTGGTCGT	0.2 kcal/mol
AAGGGCACGTGGGTCT	-0.27 kcal/mol
TTCTTCACGTGCAGGT	0.3 kcal/mol
TGGCACACGTGATGTA	0.23 kcal/mol
TATGTCACGTGTTCGT	0.1 kcal/mol
TGCTGCACGTGTTCTG	-0.04 kcal/mol
GTCTTCACGTGGTTGT	0.31 kcal/mol
TTTTTCACGTGACAAT	0.4 kcal/mol
AGCGGCACGTGGTCGT	-0.27 kcal/mol
GTATTCACGTGATGCG	0.18 kcal/mol
TTATTCACGTGCTGTA	0.15 kcal/mol
TACGTCACGTGTGAGA	0.17 kcal/mol
GGATGCACGTGGTAGA	0 kcal/mol
GTGTACACGTGACTGT	0.15 kcal/mol
GGGGGCACGTGCTCGG	-0.18 kcal/mol

Sequence	relative binding free energy
TGTTACACGTGTCAGT	-0.04 kcal/mol
GCGGTCACGTGCATGT	0.13 kcal/mol
CGATACACGTGGGGGC	0.01 kcal/mol
TCTGCCACGTGGGGTA	-0.23 kcal/mol
GAAATCACGTGTGTTT	0.26 kcal/mol
TACGCCACGTGTGTGT	-0.05 kcal/mol
GGTTCCACGTGATGTG	0.29 kcal/mol
AATTGCACGTGTACTT	-0.04 kcal/mol
ATTTCCACGTGTGTGT	0.04 kcal/mol
AGGAACACGTGGTAGT	-0.05 kcal/mol
GTGTTCACGTGACGTC	0.44 kcal/mol
AACTTCACGTGGGGCG	0.16 kcal/mol
GTGTCCACGTGGGAGT	-0.05 kcal/mol
TTGAGCACGTGACGTT	0.06 kcal/mol
TTGTTCACGTGATATA	0.45 kcal/mol
GCTTTCACGTGGGGGT	0.09 kcal/mol
CATTACACGTGGAGTT	0.21 kcal/mol
TGATTCACGTGTCGTT	0.29 kcal/mol
CGAGTCACGTGGGTCG	0.09 kcal/mol
TTGATCACGTGCTGAG	0.02 kcal/mol
TAGTACACGTGCTTAT	0.15 kcal/mol
GATCGCACGTGGTAGG	-0.1 kcal/mol
